Reference: article PMC4336329 (PLoS ONE, 2015)
Out of some 310,000 compounds screened, about 2,200 (0.71%) showed an effect of 50% or more. The effect is printed as a negative number. Some of the results follow.

Each molecule was assayed against human ether-à-go-go-related gene (hERG) potassium channel (human, UniProt Q12809) (assay: primary screen, population patch clamp on CHO cells stably expressing hERG).
Chain of human ether-à-go-go-related gene (hERG) potassium channel (Q12809 whole entry, looked up): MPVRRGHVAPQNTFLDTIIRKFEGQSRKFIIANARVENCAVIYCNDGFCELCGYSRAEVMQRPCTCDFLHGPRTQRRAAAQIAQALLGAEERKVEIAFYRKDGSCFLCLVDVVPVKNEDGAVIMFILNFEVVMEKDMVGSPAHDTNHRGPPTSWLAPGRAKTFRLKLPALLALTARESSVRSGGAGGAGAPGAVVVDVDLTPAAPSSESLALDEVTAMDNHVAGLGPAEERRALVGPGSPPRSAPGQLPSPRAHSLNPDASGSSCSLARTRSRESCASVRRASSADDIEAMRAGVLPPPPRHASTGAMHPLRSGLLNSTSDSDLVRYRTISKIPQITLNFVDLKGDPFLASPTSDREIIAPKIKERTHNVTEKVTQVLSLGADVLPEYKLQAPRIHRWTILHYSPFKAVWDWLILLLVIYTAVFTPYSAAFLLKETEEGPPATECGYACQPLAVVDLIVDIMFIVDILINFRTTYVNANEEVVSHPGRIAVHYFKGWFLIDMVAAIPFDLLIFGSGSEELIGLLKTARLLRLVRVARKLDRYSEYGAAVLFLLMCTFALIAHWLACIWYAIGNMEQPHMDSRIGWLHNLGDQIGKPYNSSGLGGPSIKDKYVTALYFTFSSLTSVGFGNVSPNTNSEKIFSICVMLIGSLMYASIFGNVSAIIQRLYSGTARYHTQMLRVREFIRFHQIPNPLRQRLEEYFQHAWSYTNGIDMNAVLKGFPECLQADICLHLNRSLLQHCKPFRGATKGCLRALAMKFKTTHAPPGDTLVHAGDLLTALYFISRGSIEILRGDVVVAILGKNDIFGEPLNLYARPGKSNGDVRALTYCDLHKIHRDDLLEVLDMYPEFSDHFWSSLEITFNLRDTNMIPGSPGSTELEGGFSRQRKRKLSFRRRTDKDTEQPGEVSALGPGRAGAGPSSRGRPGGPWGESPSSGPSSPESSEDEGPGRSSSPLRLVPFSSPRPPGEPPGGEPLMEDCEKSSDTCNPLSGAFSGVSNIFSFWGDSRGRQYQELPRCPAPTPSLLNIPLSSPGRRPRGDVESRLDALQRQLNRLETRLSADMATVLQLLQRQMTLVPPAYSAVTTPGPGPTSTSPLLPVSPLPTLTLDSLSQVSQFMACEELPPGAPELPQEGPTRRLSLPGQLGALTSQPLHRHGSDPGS

Structure (SMILES) | hERG current change (%, negative = inhibition) at 1uM
COC(=O)c1ccc(CN2[C@H](C(=O)OC)C[C@@]3(O)[C@H](O)[C@H](O)[C@H](O)C[C@@H]23)cc1 | -10.5%
Cl.O=C(c1ccco1)N1CCN(C/C=C/c2ccccc2)CC1 | -3.18%
CN1CCN(C2=C(Cl)C(=O)N(C3CCCCC3)C2=O)CC1 | -5.33%
O=C(c1ccco1)N1CCC(c2nc3ccccc3[nH]2)CC1 | 1.48%
Cl.NC(N)=Nc1nc(C2COc3ccccc3O2)cs1 (stereo not shown) | 6.1%
CC(C)NS(=O)(=O)c1ccc(NC(=O)C(C)OC(=O)C2CCC2)cc1 (stereo not shown) | 19.5%
CN1CCN(C(=O)/C=C\c2ccc(Cl)cc2)CC1 | -9.84%
CC1=C(C(=O)Nc2ccccn2)C(c2ccc3c(c2)OCO3)C2=C(CC(C)(C)CC2=O)N1 (stereo not shown) | 10.7%
O=C(C1CCN(Cc2ccc(F)cc2)CC1)N1CCN(C/C=C/c2ccccc2)CC1.O=C(O)C(=O)O | 4.01%
COc1cccc(-c2cc3onc(-c4ccccc4)c3c(=O)n2C)c1 | 4.51%
Cc1c(N2C(=O)C(=O)/C(=C(/O)c3ccc(Cl)cc3)C2c2ccccc2)c(=O)n(-c2ccccc2)n1C (stereo not shown) | 2.52%
O=C(CSc1nnc(-c2ccc(F)cc2)c2ccccc12)Nc1cccc(Cl)c1 | 1.25%
O=C(/C=C/c1ccccc1Cl)NCc1cccs1 | 0.0876%
Cc1cc(Br)ccc1NC(=O)C1C2CCC(O2)C1C(=O)O (stereo not shown) | 10.6%
COc1ccc(C(=O)Cn2cnc3ccccc3c2=O)cc1OC | 16.6%
O=C([O-])C(CCCCNS(=O)(=O)c1ccc(F)cc1)NS(=O)(=O)c1ccc(F)cc1.[K+] (stereo not shown) | 16.7%
O=c1oc2ccccc2c(NC2CCCCC2)c1NS(=O)(=O)c1ccc(Cl)cc1 | 10.5%
CCn1cc(CN2CCN(Cc3ccc(C)o3)C(CCO)C2)c2ccccc21 (stereo not shown) | 11.9%
COc1ccc(C)cc1NC(=O)CCS(=O)(=O)c1ccc2c(c1)oc(=O)n2C | 21.4%
COc1cccc(N2CC(O)=C(c3nc4ccccc4s3)C2=N)c1 | 7.52%
CC1C(=O)N2CCCc3cc(NC(=O)c4ccccc4Br)cc1c32 (stereo not shown) | 2.41%
CC1(C)Cc2cccc(C(=O)Nc3ccncc3)c2O1 | 8.04%

Structure (SMILES) | hERG current change (%, negative = inhibition) at 1uM
O=[N+]([O-])c1ccc(O)c(-c2nc(-c3ccccc3)c(-c3cccs3)[nH]2)c1 | -2.65%
COc1ccc(-c2nc(CS(=O)(=O)CC(=O)NCc3ccccc3Br)c(C)o2)cc1 | 1.58%
CCn1nc(C)c(CNC(=O)C2CCC(=O)N(CCc3ccc(Cl)cc3)C2)c1C (stereo not shown) | 16.2%
O=c1c(/C=N\NS(=O)(=O)c2ccccc2)coc2ccc(Cl)cc12 | 9.18%
COc1cccc(OCc2nc3ncc(Br)cc3[nH]2)c1 | 12.1%
COc1ccc(CN2C(=O)C(C)S/C2=N/N=C/c2ccco2)cc1 (stereo not shown) | 15.2%
O=c1cc(-c2ccc(Br)cc2)[nH][nH]1 | 16.3%
NNC(=O)c1sc2cc(C(F)(F)F)cnc2c1-c1ccccn1 | 12.7%
Cc1ccc(C)c(CN2C(=O)CSc3ccc(C(=O)NCC(C)CN4CCC(C)CC4)cc32)c1 (stereo not shown) | -70.4%
COC(=O)Cc1cc(=O)oc2cc(O)ccc12 | 9.01%
CC1(c2ccc([N+](=O)[O-])cc2)NC(=O)NC1=O (stereo not shown) | 10.6%
O=C(OCc1nnc(-c2ccccc2)o1)c1ccc(CO)cc1 | 18.3%
CCOC(=O)c1cnn(-c2cc(Oc3ccccc3)ncn2)c1N | 4.93%
Cn1cccc1Cc1nnc(SCC(=O)N2CCCc3ccccc32)n1-c1ccc(F)cc1 | 1.94%
O=C(/C=C/c1ccco1)NCc1ccc2c(c1)OCO2 | 13.7%
COc1ccc(CNC(=O)CN2C(=O)COc3ccc(S(=O)(=O)N4CCCC4)cc32)cc1 | 6.86%
O=C(Cn1c(C(F)(F)F)nc2ccccc21)c1ccc(Cl)cc1 | 5.78%
Cc1nc(C(=O)N2CCCC(N3CCN(c4ccccc4C)CC3)C2)cs1 (stereo not shown) | -5.07%
CCCCn1c2c(c(=O)n(C)c1=O)C(c1ccc(OC)cc1)N1CCCCCC1=N2 (stereo not shown) | 5.61%
Cc1cccc(CCNC(=O)c2nnc(Cc3ccc(Cl)cc3)o2)c1 | 8.72%
C/C=C/C(=O)OCC(=O)Nc1cccc(F)c1 | 12.4%
COc1ccc(C2=NN(S(C)(=O)=O)C(c3ccc4nccnc4c3)C2)cc1 (stereo not shown) | 11.7%

Structure (SMILES) | hERG current change (%, negative = inhibition) at 1uM
Cn1c2c(c(=O)n(C)c1=O)CN(Cc1ccc(F)cc1)CN2 | 6.89%
O=C1c2ccccc2C(=O)C1c1ccncc1 | 16.3%
COc1cc(C[C@H](C)[C@H](C)Cc2ccc3c(c2)OCO3)ccc1O | -5.01%
O=C(CCCn1c(SCC(=O)c2ccc(F)cc2)nc2ccccc2c1=O)NCc1ccccc1 | 11.1%
COCCN(C(=O)C(C)C)c1nnc(-c2cccc(C)c2)s1 | 11%
CC1(C)C2CCC1(CS(=O)(=O)NCc1ccc(C(F)(F)F)cc1)C(=O)C2 (stereo not shown) | 14.9%
Cc1c(Cl)c(C(=O)N2CCCc3ccccc32)nn1C | 14.6%
FC(F)Oc1ccc(-c2csc(=Nc3cccnc3)n2CC2CCCO2)cc1 (stereo not shown) | 6.15%
COCCn1c(N)c(N(Cc2ccccc2)C(=O)C2=COCCO2)c(=O)[nH]c1=O | 14.9%
CN1C[C@@H]2C(c3ccc(C(F)(F)F)cc3)C3(c4ccc(C#N)cc4)CC2(C3)[C@H]1c1ccccc1 (stereo partly shown) | 15.3%
O=C(Nc1ccccc1N1CCCC1)C1CC(=O)N(Cc2ccccc2)C1 (stereo not shown) | -9.7%
NS(=O)(=O)c1ccc(CNC(=O)/C=C/c2ccc(Cl)c(Cl)c2)cc1 | 6.01%
COc1ccc(NS(=O)(=O)c2ccc(N3CCCC3)c(NC(=S)Nc3cccc(C)c3C)c2)cc1 | 3.05%
Cl.NC(N)=NC(=O)c1nc(Cl)c(N)nc1N.O | 1.88%
COC(=O)[C@H](Cc1ccccc1)NC(=O)N1CCN(Cc2ccccc2)CC1 | -2.39%
O=C1CSC(=Nc2ccccc2)N1Cc1ccccc1 | 13.2%
Cc1noc(/C=C/N(C)C)c1S(=O)(=O)N1CCCC(C(=O)NCc2ccco2)C1 (stereo not shown) | -4.62%
O=C(CCCN1C(=O)C(c2ccccc2)Oc2cccnc21)NCCc1ccc(Cl)cc1 (stereo not shown) | 15.3%
O=C(Cc1ccccc1[N+](=O)[O-])Nc1ccc2c(c1)OCO2 | 7.2%
COc1ccnc(N=CNOCc2ccc(C)cc2)c1C#N | 10.5%
CN(CC(=O)Nc1ccc(Cl)c(C(F)(F)F)c1)C(=O)c1cc(=O)c2ccccc2o1 | 11.1%
O=C(c1ccccc1)c1ccc(O)cc1O | 5.57%

Structure (SMILES) | hERG current change (%, negative = inhibition) at 1uM
O=C(CCN1C(=O)C2C3CCC(C3)C2C1=O)OCC(=O)c1ccc(Br)cc1 (stereo not shown) | 3.48%
O=c1c(N2CCOCC2)c(N2CCOCC2)c1=O | 8.97%
CCc1ccc(OCCn2cccn2)cc1 | 13.2%
CCc1ccc(N2CC(O)=C(c3nc4ccccc4c(=O)[nH]3)C2=N)cc1 | 5.36%
CCOC(=O)CSc1nnc(-c2ccccc2OC)o1 | -1.53%
COc1ccc(-c2cc(C(=O)N3CCN(c4ccccc4OC)CC3)no2)cc1OC | 9.61%
O=C(CSc1cccc[n+]1[O-])N1CCc2ccccc21 | 20.4%
CC(C)NC(=O)CSc1nc(Cc2cccs2)nc2ccccc12 | 5.83%
CCCCNC(=O)OC(C)CNC(=O)Oc1cccc(C)c1 (stereo not shown) | 7.31%
Cc1ccc(CN2C(=O)S/C(=C\c3ccccc3OCC(=O)O)C2=O)cc1 | 6.1%
C=C(C)c1cccc(C(C)(C)NC(=O)NNC(=O)c2ccccc2O)c1 | 8.29%
Cc1ccc(C(=O)NC(=S)NNC(=O)c2ccccc2O)cc1 | -1.77%
Brc1ccccc1-c1csnn1 | 12.5%
COc1cccc(NC(=O)CN2C(=O)NC3(CCc4ccccc43)C2=O)c1 (stereo not shown) | 18.2%
COc1ccc(-c2cc(C(=O)Nc3ccc(S(=O)(=O)Nc4onc(C)c4C)cc3)c3ccccc3n2)cc1OC | 6.03%
CCOC(=O)c1cnc2c(c(C)nn2CC)c1Cl | 7.19%
COc1ccc(C(CNC(=O)CSc2ccc(Br)cc2)N2CCOCC2)cc1 (stereo not shown) | -6.08%
Cc1cc(NC(=O)CSc2nnc(-c3ccc(Br)o3)n2Cc2ccccc2)no1 | -5.6%
Br.N=c1n(CCN2CCOCC2)c2ccccc2n1Cc1ccccc1Br | -51.7%
Cc1nc(/C=C/c2ccccc2)cc(/C=C/c2ccccc2)n1 | 3.19%
COc1ccccc1C(=O)OCn1nnc2ccccc2c1=O | 5.54%
COc1ccc(-c2[nH]ncc2CN(C)CCc2c(C)n[nH]c2C)c(F)c1 | 18.8%
